In PubChem BioAssay AID1159614 (National Center for Advancing Translational Sciences (NCATS), 2016):
The campaign covered roughly 45,000 compounds. About 65 (0.1%) were called active. Calls come from the whole dose curve; as a rule, active = well fitted activation curve with a large enough effect; inconclusive = small, poorly fitted or top-dose-only effect; inactive = no such curve, though single readings can be large or run the other way. The list shows a part of the results.

Target: Galactocerebrosidase (Homo sapiens) (UniProt P54803)
Assay: A Novel Cell-Based Assay to Identify Small Molecules for B -Galactocerebrosidase; note: 0% is about no effect; nearly all actives have a fitted effect of over 65% in size
Conditions: 145M-Twi-hGALC-G270D cells, HMU-beta-Gal fluorescence, 48 h; series mostly up to 57.5 µM; activation: at the top concentration
Summary of the method: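 qHTS, 1536-well; 145M-Twi-hGALC-G270D cells (WT line also made) in DMEM/F12 + 10% FBS; compound incubation on live cells; HMU-β-gal 0.1 mM final, pH 5.2, NaTC; carbonate stop; fluorescence increase = enhanced residual activity.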

UniProt P54803, sequence (P54803 whole entry, looked up): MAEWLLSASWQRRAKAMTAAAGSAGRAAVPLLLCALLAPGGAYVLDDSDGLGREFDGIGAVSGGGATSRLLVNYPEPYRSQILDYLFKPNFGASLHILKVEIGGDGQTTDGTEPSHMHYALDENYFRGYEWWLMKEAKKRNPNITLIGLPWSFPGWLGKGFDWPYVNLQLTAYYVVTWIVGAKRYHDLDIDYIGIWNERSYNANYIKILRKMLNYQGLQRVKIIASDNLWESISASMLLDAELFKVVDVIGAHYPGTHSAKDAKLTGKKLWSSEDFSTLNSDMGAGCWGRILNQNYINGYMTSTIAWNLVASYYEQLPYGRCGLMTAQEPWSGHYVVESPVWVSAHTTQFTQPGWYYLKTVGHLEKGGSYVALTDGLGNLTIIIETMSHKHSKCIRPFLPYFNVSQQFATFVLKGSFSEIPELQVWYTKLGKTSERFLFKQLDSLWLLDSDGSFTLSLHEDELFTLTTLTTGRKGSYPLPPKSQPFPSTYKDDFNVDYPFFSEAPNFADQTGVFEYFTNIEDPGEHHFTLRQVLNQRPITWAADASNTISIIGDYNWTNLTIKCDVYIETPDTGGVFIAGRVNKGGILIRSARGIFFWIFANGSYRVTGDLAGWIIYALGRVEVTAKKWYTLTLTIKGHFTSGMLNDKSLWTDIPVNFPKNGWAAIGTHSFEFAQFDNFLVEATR

activation, inactive:
Cn1cnc(S(=O)(=O)N2CCCC(C(=O)NCc3ccccc3)C2)c1 (stereo not given) -6.19%
Cc1cccc(N2CCN(C(=O)Cn3ncc4c([nH]c5ccccc54)c3=O)CC2C)c1 (stereo not given) -8.54%
COc1cccc(NC(=O)c2c(N3CCCC3=O)c3cc(C)ccc3n2C)c1 -33.4%
CCOc1ccc(CNC(=O)c2cnc3sc(N(CC)CC)nn3c2=O)cc1 -14.8%
O=C(NCCS(=O)(=O)N1CCN(c2ccccc2F)CC1)C1CC(=O)N(c2ccccc2)C1 (stereo not given) -4.7%
Nc1nc(F)nc2c1ncn2[C@@H]1O[C@H](CO)[C@@H](O)[C@@H]1O -6.73%
O=C(CSc1nc2ccccc2nc1Cc1ccccc1)Nc1ccccc1C(F)(F)F -2.72%
COc1ccc(S(=O)(=O)NCCc2sc3nc(-c4ccc(C)cc4)nn3c2C)cc1F -3.2%
Cc1c(OCC(F)(F)F)ccnc1CS(=O)c1nc2ccccc2[nH]1 (stereo not given) -19.4%
CCOc1ccc(-n2ccnc2SCC(=O)Nc2ccc3c(c2)OCO3)cc1 -14.2%
CCCCN(Cc1ccccc1)S(=O)(=O)c1cc(Br)cc2c1N(C(C)=O)CC2 -11.2%
CCc1ccccc1NC(=O)C(CC)Oc1ccccc1-c1nnc(-c2ccccc2)o1 (stereo not given) 0.32%
CCOc1ccc(CCNC(=O)c2cccc(-n3c(C)nc4cccnc43)c2C)cc1 -19.3%
CCOC(=O)CCCN1C(=O)CCn2nc(-c3cn(C)c4ccccc34)cc21 -8.66%
COc1ccc(-c2nc3c(c(SCC(=O)Nc4ccccc4OC)n2)Cc2cccc(C)c2O3)cc1 -7.21%
CCCSc1ncc(Cl)c(C(=O)Nc2scc(-c3ccc(C)cc3)c2C(=O)OCC)n1 -10.4%
CCCCC(=O)Nc1c(C(=O)N2CCN(c3ccccc3)CC2)oc2ccccc12 -13.8%
CCOc1ccc(CNC(=O)c2cccn2-c2nnc(N3CCCCC3)s2)cc1OC -0.442%
CCOCCCNC(=O)c1cc(=O)[nH]c2ccc(S(=O)(=O)N3CCCC3)cc12 -14%
CCc1cccc(C)c1NC(=O)C1CCN(S(=O)(=O)c2cccc3nonc23)CC1 -10.1%
COc1ccc(C(=O)Nc2c(C(=O)c3ccc(F)cc3)oc3ccccc23)cc1 -9.84%
O=C1CC(c2ccc(Cl)cc2)c2cc3c(cc2N1)OCCO3 (stereo not given) -9.63%
Cc1ccc(-n2c(=O)c3oc4ccccc4c3n(CC(=O)Nc3ccc(F)c(Cl)c3)c2=O)cc1C -5.15%
N#Cc1ccccc1NC(=O)C(=O)NCC(c1ccc2c(c1)OCO2)N1CCOCC1 (stereo not given) -10.8%
O=C(CS(=O)(=O)c1cccc2nsnc12)Nc1ccc(F)cc1F -9.91%
CCC(C)NC(=O)Cc1ccc(NC(=O)N2CCCCc3ccccc32)cc1 (stereo not given) 0.599%
Cc1cc(C)cc(OCc2cc(=O)n3c4c(sc3n2)CCCC4)c1 -2.21%
CCCCN(C)C(=O)c1ccc2c(c1)N(Cc1ccc(F)cc1)C(=O)c1ccccc1S2(=O)=O -26.8%
O=C(Nc1ccccc1F)C1CCN(S(=O)(=O)c2ccc3c(c2)CCCN3C(=O)C2CCC2)CC1 23.9%
Cc1ccc(-c2nc(CS(=O)CC(=O)N3CCN(c4ccc(F)cc4)CC3)c(C)o2)cc1 (stereo not given) -9.57%
CC(C)CCNC(=O)c1c2c(nc3ccccc13)C(=O)N(C1CCCCC1)C2 -6.3%
CC(=O)N1CCOc2cc(S(=O)(=O)Nc3c(C)cccc3C(C)C)c(Cl)cc21 -22.2%
COC(=O)c1ccccc1NC(=O)N1CCC(n2c(C)nc3cccnc32)CC1 -4.97%
COCCNC(=O)c1c(NC(=O)c2cc(=O)c3cc(Cl)ccc3o2)sc2c1CCCC2 -17.7%
COc1cc(OC)c(N(C)C(=O)Cn2ncc3c(=O)oc4ccccc4c32)cc1Cl -24.2%
Cc1ccc(CN2C(=O)N(c3ccccc3)C(=O)C2CC(=O)Nc2ccccc2)cc1 (stereo not given) -11.9%
O=C(CN1C(=O)COc2ccc(S(=O)(=O)N3CCCCCC3)cc21)NCCc1ccccc1 -6.67%
Cc1ccc(NC(=O)N2CCN(C)c3ncccc32)cc1C -3.94%
Cc1ccc(CNC(=O)c2cc(=O)c3cc(C)cc(C)c3o2)cc1 -7.85%
CC(=O)N1CCN(c2csc3ccc(Br)cc3c2=O)CC1 -11.6%
CCC(C)NC(=O)CSc1nc(-c2ccc(F)cc2)cc(C(F)(F)F)n1 (stereo not given) -9.57%
COC(=O)c1ccccc1NC(=O)c1cnc2sc(N3CCOCC3)nn2c1=O -12.9%
COc1ccccc1NC(=O)Cn1nnc(C(=O)Nc2ccccc2Br)c1N -11.6%
CCc1cccc(C)c1NC(=O)Cn1cc2c(n1)CCCCC2 -14.8%
Cc1cccc(NS(=O)(=O)c2ccc3c(c2)OCC(C(=O)N2CCCC2)O3)c1C (stereo not given) -5.61%
COc1cccc(C(=O)Nc2cccc(C(=O)OCc3cc(=O)n4c5c(sc4n3)CCCC5)c2)c1 -4.68%
CCc1nn(CCCC(=O)NCc2cc(Br)ccc2OC)c(=O)c2cc3occc3n12 -11.6%
CCOc1ccc(NC(=O)c2cc3cc4cc(OC)ccc4nc3s2)cc1 -8.4%
COc1ccccc1-n1c(=O)c2c3c(sc2n(Cc2ccccc2F)c1=O)CN(C(C)=O)CC3 -24.1%
Cc1ccc(S(=O)(=O)c2cn(CC(=O)Nc3ccc4c(c3)OCO4)c3ccccc3c2=O)cc1C -18.6%
O=C(NCCS(=O)(=O)N1CCN(c2ccc(F)cc2)CC1)C1CC(=O)N(c2ccccc2)C1 (stereo not given) -16.5%
COc1ccc2cc(CNc3ccc(C)cc3)c(=O)n(CC(=O)Nc3cccc(C(F)(F)F)c3)c2c1 6.25%
CCOC(=O)CSc1nc2c(sc3cccc(F)c32)c(=O)n1Cc1ccc(OC)cc1 -1.09%
O=c1c2cccnc2n(Cc2cccc(F)c2)c(=O)n1Cc1ccccc1Cl -2.98%
Cc1ccc(-c2nnc(Nc3ccc(O)cc3)c3ccccc23)cc1S(=O)(=O)N1CCCCC1 -34.9%
CC(C)c1cc(-c2nc(-c3ccc(Br)cc3)no2)n[nH]1 -17.4%
COc1ccc2[nH]c(=O)c(CN(C(=O)c3cccc(Cl)c3)c3cccc(C)c3)cc2c1 -15.2%
CCN1CCN(c2ncc3c(n2)CCN(Cc2ccc(OC)c(OC)c2)C3)CC1 -11.5%
CCCN1CCN(CCNC(=O)Nc2ccccc2OCC)CC1 -5.58%
CCCN(Cc1cccs1)C(=O)Nc1ccc(Br)cc1F -19.6%
Cc1cc2c(n1-c1ccc(C(=O)NCCc3ccccc3)cc1)CCC(C)C2 (stereo not given) -1.41%
COc1cc(C(CC(=O)Nc2cc(C)ccn2)N2Cc3ccccc3C2=O)cc(OC)c1OC (stereo not given) -21.9%
CCOC(=O)c1c(C)[nH]c(C)c1S(=O)(=O)NCC(=O)NCc1ccccc1Cl -12.2%
COc1cccc(CNC(=O)CCCCCn2c(=O)[nH]c3cc(OC)c(OC)cc3c2=O)c1 -14.3%
CCN1C(=O)c2ccccc2S(=O)c2ccc(C(=O)N3CCN(c4ccccc4OC)CC3)cc21 (stereo not given) -0.253%
CCOc1ccccc1C(=O)Nc1ccc(S(=O)(=O)Nc2ncccn2)cc1 -28.4%
Cc1cccc(Cc2c(C)nc3nc(SCc4ccccc4F)nn3c2C)c1 13.4%
CC(C)=CCC/C(C)=C/CC/C(C)=C/C(=O)OCC(=O)[C@@]1(O)CC[C@H]2[C@@H]3CCC4=CC(=O)C=C[C@]4(C)[C@H]3[C@@H](O)C[C@@]21C -10.3%
COc1ccccc1NC(=O)CSc1oc(-c2ccccc2)nc1S(=O)(=O)c1ccccc1 -22.8%
COc1ccc2c(c1)c1c(c(=O)n(-c3cccc(C)c3)c(=O)n1CC(=O)NCC1CCCO1)n2C (stereo not given) 0.3%
COc1cc(-c2oc3ccc(C)cc3c(=O)c2O)cc(OC)c1OC -19.1%
Cc1cc2c(n1-c1ccc(C(=O)NCc3ccc(OC(C)C)cc3)cc1)CCCC2 15.2%
COc1ccccc1CNC(=O)CCCn1c(=O)c2ccccc2n(Cc2ccccc2C#N)c1=O 0.223%
O=C(Nc1ccc(-c2nc3cc(NC(=O)c4ccc(Cl)cc4)ccc3o2)cc1)c1ccc(Cl)cc1 -11.7%
CCCN(CCC)C(=O)C1CCCN(S(=O)(=O)c2cc(Br)cc3c2N(C(=O)CC)CC3)C1 (stereo not given) -23.2%
COc1ccc(-c2cc(C(F)(F)F)n3nc(C(=O)Nc4sc5c(c4C(=O)OC(C)C)CCC(C)C5)cc3n2)cc1 (stereo not given) -11%
CCc1ccc(C(=O)NC2=NC(c3cc(OC)ccc3OC)CC(=O)N2)cc1 (stereo not given) -8.82%
COC(=O)c1ccc(-c2nc(-c3ccc(OC)c(OC)c3)no2)cc1 12.8%
CC(=O)Nc1ccc(NC(=O)C(c2ccccc2)N2Cc3ccccc3C2=O)cc1 (stereo not given) -22.6%
Cc1ccc(-c2nn(C)c(=O)c3ccccc23)cc1S(=O)(=O)NCCCN(C)C -19.3%
Cc1ccc(CCNC(=O)CCn2nc(-c3ccc(Cl)cc3)ccc2=O)cc1 1.86%
O=S(=O)(c1ccc(Br)cc1)c1nnn2c1nc(NCCc1ccccc1)c1sccc12 -15.1%
Cc1ccc(-c2onc(C)c2C)cc1S(=O)(=O)Nc1cccc(Cl)c1C -9.01%
COc1ccc(N2C(=O)CCSC23C(=O)N(Cc2ccc(F)cc2)c2ccccc23)cc1 (stereo not given) -6.64%
Cc1nc2ccc(S(=O)(=O)NC(C(=O)N3CCN(c4cccc(Cl)c4)CC3)C(C)C)cc2s1 (stereo not given) -8.94%
CCc1ccc(-n2nc(CO)c(C(=O)NCc3cccnc3)n2)cc1 -10.8%
Cc1cc(C)cc(NC(=O)CCc2c(C)nc3c(c2C)c(=O)n(C)c(=O)n3C)c1 -0.73%
O=C(c1ccc2c(c1)N(Cc1ccc(Cl)cc1)C(=O)c1ccccc1S2(=O)=O)N1CCN(Cc2ccccc2)CC1 -2.66%
COCCNC(=O)c1cnn(-c2cccc(C)c2)c1-n1cccc1 -5.14%
CC1CCN(S(=O)(=O)c2cc(C(=O)NCc3ccccc3)n(C)c2)CC1 -5.28%
COc1cc2ncc3c(-c4ccccc4)nn(CC(=O)NC4CCCCC4)c3c2cc1OC -6.49%
Cc1nc(N2CCCC2)ncc1C(=O)NCc1ccc(F)cc1 -12.6%
Cc1cn2c(=O)c(S(=O)(=O)Nc3ccc(N4CCOCC4)cc3)c(C)nc2s1 -1.48%
Fc1cccc(-c2nnn3c2nc(NCc2ccc4c(c2)OCO4)c2ccccc23)c1 -1.59%
Cc1cc(N2CCC(C(=O)Nc3ccccc3Cl)CC2)n2nc(C)c(-c3ccc(Cl)cc3)c2n1 -12.2%
